Source: paper PMC4336329 (PLoS ONE, 2015)
About 2,200 (0.71%) of roughly 310,000 compounds showed an effect of 50% or more. Effects have a minus sign here. This is one part of the list.

target: human ether-à-go-go-related gene (hERG) potassium channel (human, UniProt Q12809); assay: primary screen, population patch clamp on CHO cells stably expressing hERG
Sequence (Q12809 whole entry, looked up): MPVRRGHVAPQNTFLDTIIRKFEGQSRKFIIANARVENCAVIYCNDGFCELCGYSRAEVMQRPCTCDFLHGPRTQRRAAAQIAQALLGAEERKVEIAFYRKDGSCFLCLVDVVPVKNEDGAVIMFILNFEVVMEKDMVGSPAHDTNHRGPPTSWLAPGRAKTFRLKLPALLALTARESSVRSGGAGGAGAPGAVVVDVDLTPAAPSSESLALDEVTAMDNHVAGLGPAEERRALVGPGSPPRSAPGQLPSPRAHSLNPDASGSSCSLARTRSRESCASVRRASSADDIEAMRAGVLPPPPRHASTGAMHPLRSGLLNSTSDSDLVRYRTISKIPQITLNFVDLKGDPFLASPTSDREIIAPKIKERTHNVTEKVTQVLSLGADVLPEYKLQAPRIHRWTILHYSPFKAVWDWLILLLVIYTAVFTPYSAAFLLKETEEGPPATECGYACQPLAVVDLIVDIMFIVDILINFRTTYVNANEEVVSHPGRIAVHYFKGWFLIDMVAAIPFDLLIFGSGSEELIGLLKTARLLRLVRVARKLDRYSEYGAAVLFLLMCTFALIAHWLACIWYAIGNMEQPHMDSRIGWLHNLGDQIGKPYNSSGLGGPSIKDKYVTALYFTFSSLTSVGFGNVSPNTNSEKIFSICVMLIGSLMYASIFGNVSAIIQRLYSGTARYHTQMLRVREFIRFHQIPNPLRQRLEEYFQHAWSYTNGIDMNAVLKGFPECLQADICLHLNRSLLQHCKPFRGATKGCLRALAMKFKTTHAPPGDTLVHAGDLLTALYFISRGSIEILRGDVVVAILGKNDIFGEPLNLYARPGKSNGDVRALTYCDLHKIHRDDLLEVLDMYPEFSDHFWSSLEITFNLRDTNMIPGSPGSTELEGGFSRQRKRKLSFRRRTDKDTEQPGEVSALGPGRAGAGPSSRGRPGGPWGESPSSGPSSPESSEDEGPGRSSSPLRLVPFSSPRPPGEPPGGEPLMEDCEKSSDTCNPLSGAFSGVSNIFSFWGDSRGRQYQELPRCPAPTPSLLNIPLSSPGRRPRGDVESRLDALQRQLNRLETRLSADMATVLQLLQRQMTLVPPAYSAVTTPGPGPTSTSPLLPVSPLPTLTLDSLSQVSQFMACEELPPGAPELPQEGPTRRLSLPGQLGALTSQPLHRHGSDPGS

Structure (SMILES)	hERG current change (%, negative = inhibition) at 1uM [%]
CSc1ncccc1C(=O)N1CCN(S(=O)(=O)c2ccc(C)cc2)CC1	3.52
C(=N\C(/N=C/c1ccco1)c1ccco1)/c1ccco1	9.71
Cc1ccccc1NC(=O)c1ccc(OCc2c(C)noc2C)cc1	7.91
O=c1cc(N2CCN(Cc3ccccc3)CC2)[nH]c(=O)n1-c1cccc(C(F)(F)F)c1	9.84
Cc1nn(C(C)C(=O)NCc2ccco2)c(=O)c2nn(-c3ccccc3)c(C)c12 (stereo not drawn)	6.66
CC(=O)N1CC(=O)N(Cc2ccccc2)/C(=C/c2ccccc2)C1=O	17.1
C=CCOc1c(Cl)cc(C2NC(=O)NC(C)=C2C(=O)OC)cc1Cl (stereo not drawn)	0.4
Cc1nc2ccc(NC(=O)C3CCN(S(=O)(=O)c4cccs4)CC3)cc2s1	7.35
CCCCNC(=O)N(O)C1N(CCCC)C(=O)N(CC(=O)OC)C1(C)C (stereo not drawn)	19.3
COc1ccc(S(=O)(=O)N2CCN(C(=O)c3ccco3)CC2)c(C)c1C	10.9
CCOC(=O)C1CCCN(C(=O)C2CC(=O)N(c3ccc(C)cc3)C2)C1 (stereo not drawn)	8.97
Cc1ccccc1OCC(=O)O/N=C(\N)Cc1ccc(Cl)cc1	14
Cc1cccc(OCCCC(=O)NC2CCCCC2)c1	11.5
CCOc1ccccc1/C=N/NC(=O)c1ccc(Cn2cc([N+](=O)[O-])cn2)o1	-2.54
CS(=O)(=O)N1CCN(c2ccccc2NC(=O)c2cc3ccccc3o2)CC1	4.82
COC(=O)c1ccccc1S(=O)(=O)N(Cc1cc2cc3c(cc2[nH]c1=O)OCO3)C1CCCCC1	4.54
CN1CCc2nc(SCc3ccccc3Br)c(C#N)cc2C1	1.82
COC(=O)c1ccc(C(=O)OC)c(NC(=O)CN(c2ccc3c(c2)OCO3)S(C)(=O)=O)c1	-1.42
O=C(Nc1nc2ccc([N+](=O)[O-])cc2s1)c1ccncc1	0.0256
Cc1ccc(NC(=O)c2noc3c2CCc2ccccc2-3)cc1	11.5
O=C(Nc1ccc2c(c1)OCO2)C1CCCN(c2nc3ccccc3s2)C1 (stereo not drawn)	-0.341

Structure (SMILES)	hERG current change (%, negative = inhibition) at 1uM [%]
N#Cc1nc(COc2cccc(Cl)c2)oc1N1CCN(c2ccccc2)CC1	3.52
O=C(CCNc1cccc(Cl)c1)c1cccs1	2.97
Cc1cc(C)c(NS(=O)(=O)c2ccc(NC(=O)CCC(=O)O)cc2)c(C)c1	11.6
CCOc1ccccc1CN1C(=O)c2ccccc2C1C(=O)NC(C)CC (stereo not drawn)	3.49
Nc1cccnc1Sc1cc(Cl)c(Cl)cc1Cl	12.9
COCCCNC(=O)C1CCN(c2ccc(N3CCOCC3)nn2)CC1	10.3
CC(=O)c1ccc(S(=O)(=O)NCCC(=O)OCC(=O)N2CCCC2=O)cc1	7.46
CN(C(=O)c1cc2c(s1)-c1ccccc1S(=O)(=O)C2)c1ccccc1	5.76
O=C(Nc1nnc(-c2ccc(F)cc2)o1)c1cc(Cl)sc1Cl	12.2
Cc1ccc(C(=O)O)cc1NC(=O)CCc1ccccc1	15.3
COc1cccc(OCc2cc(/C=N/NC(=O)c3nc(Cl)c(Cl)c(N)c3Cl)ccc2OC)c1	15.3
COc1ccc(Br)c(C(=O)OCC(=O)NC2CC2)c1	4.17
CCn1cc(C(=O)NCCCOC(C)C)c(=O)c2cc(S(=O)(=O)N3CCC(C)CC3)ccc21	18.5
Cc1cccn2c(=O)c(/C=N/O)c(Nc3ccccc3F)nc12	5.49
CSCCC(NS(=O)(=O)c1ccc2c(c1)oc(=O)n2C)C(=O)NCc1ccc(C)cc1 (stereo not drawn)	8.74
CCOC(=O)c1nnn(-c2nc(N3CCCC3)nc(N3CCCC3)n2)c1-c1ccccc1	1.47
CCC1Nc2ncnc(N3CCN(c4ccccc4)CC3)c2N(Cc2ccc(Br)cc2)C1=O.O=C(O)C(F)(F)F (stereo not drawn)	8.24
COc1ccc(CN(C(=O)COc2ccc(C)c(C)c2)C2CCS(=O)(=O)C2)cc1OC (stereo not drawn)	5.77
CN(C)CCC#CC1(O)c2ccccc2-c2ccccc21	14.1
CCN(CC)C(=O)c1[nH]cnc1C(=O)Nc1cccc(Cl)c1	12.2
COc1ccccc1C1(O)C(=O)Nc2ccc(C)cc21 (stereo not drawn)	13.2
